Test results published in the supplement of paper PMC10126150.
Sequences with one replicate were seen in a single cluster, so their values are uncertain.

System: ATP
Assay: switch fluorescence ratio, 500 uM ATP over buffer (Cy3 cluster intensity, sum of 5 cycles each) (fold (ratio)); higher = stronger signal-on switching upon ATP binding; sequences stand for … in TCGTCGGCAGCGTCAGATGTGTATAAGAGACAGTTTTTTTTTTTTTTTTTTTTTTTTT…TC
Conditions: aptamer strand: ATP DNA aptamer (quencher-CACCTGGGGGAGTATTGCGGAGGAAGG + anchor), 100 nM annealed; ATP concentration: 500 uM; one replicate
Outline: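 Imaging in selection buffer was followed by imaging after 15 min with 500 uM ATP at 22 °C, for Cy3-labelled switching-strand clusters annealed to 100 nM quencher-labelled ATP aptamer on a modified Illumina MiSeq flow-cell. Five of these buffer/ATP cycles ran, separated by NaOH stripping and re-annealing. The fluorescence ratio per cluster is summed target-cycle over summed buffer-cycle Cy3 intensity, averaged per switch-domain sequence; clusters outside 100-1000 RFU were removed.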
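Also: ATP exposure 15 min at 22 °C before imaging.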

Row | Sequence | switch fluorescence ratio
1 | CACTTACCTG | 1.18
2 | TTACTGTCTG | 1.01
3 | CCTCCTTTCG | 1.41
4 | ACCAGCGTAC | 3.38
5 | CTATGGTAAC | 0.996
6 | ACTCGGGTCA | 1.02
7 | TATATAAAGC | 0.98
8 | TTATTTCCAA | 1
9 | AATTCTGTCG | 0.963
10 | ATTTTTGTGC | 1.07
11 | TGGTAAGAAT | 1.02
12 | ACGGTTAGAA | 1.06
13 | TTTCTTCCGA | 1.12
14 | TTTGCGAGCC | 0.975
15 | ATAGCTTTAA | 1.04
16 | GCGGACTTTG | 1.01
17 | TACTTGTACG | 1.13
18 | TTAACGGCGG | 0.966
19 | AAGATCTGAT | 1.02
20 | CTTTCGTATC | 1.13
21 | TATCACGGAA | 1.11
22 | ACCATACCTG | 1.23
23 | AAATGGTCGT | 1.07
24 | TAGAAGCCAT | 0.997
25 | AGTCTCTTTA | 1.02

Row | Sequence | switch fluorescence ratio
26 | GTTAGCAGCA | 1.02
27 | TAGTGAGAGG | 0.958
28 | TACTTTTGGT | 1.02
29 | CTCAATTTGT | 1.03
30 | AACTCACGGC | 1.34
31 | AATGAGGCAG | 0.991
32 | GACGAAATAA | 1.79
33 | AACTCGATA | 1.01
34 | ATAGTTGCGC | 1.03
35 | AGCGGCCTTA | 1.01
36 | CGATCCAGTA | 1.01
37 | CTCTTGTCAG | 0.998
38 | GTCATTAGGG | 0.957
39 | AGGCTTAACT | 1.03
40 | TCTGGCACCG | 1
41 | GGCTCACCAC | 1.02
42 | GAGGACCCAT | 1.04
43 | CAGGGTTCCT | 1.04
44 | GAGGTTCTGC | 0.939
45 | AATTCCTACC | 1.11
46 | AGTTTTTCAC | 1.02
47 | AGGCACACGG | 1.07
48 | CCCAGAGGAA | 1.07
49 | ACACGACCG | 1.15
50 | TTATATAGAA | 1.03

Row | Sequence | switch fluorescence ratio
51 | ATTTTAATGT | 1.06
52 | GCCATTCCGT | 1.06
53 | TGTAGAAGGC | 1.01
54 | CCCCTTTGAC | 1.09
55 | ACGACTGAAT | 1.08
56 | GCGCCAGGAT | 0.985
57 | AAGCGTTTGT | 0.976
58 | GTGAAATGCG | 0.991
59 | TTGATCAATG | 0.985
60 | TAATCCATGA | 1.03
61 | GCTTGATGGT | 0.977
62 | CTTGAGATCG | 1
63 | CCAATCGGTT | 1.01
64 | TAGATGTGGC | 1.01
65 | GCGCGGGGCA | 1.06
66 | TCATTTTCTC | 0.996
67 | AGGGAGAATG | 0.93
68 | AAATTCGAGT | 1.05
69 | CAATTGAGTC | 1.06
70 | TAGGAACCAA | 1.03
71 | CCAATCGTGT | 1.04
72 | TAGCGAAACA | 2.88
73 | TGGGATTGCA | 0.97
74 | GCTAGTAAAT | 0.986
75 | TTGGTATAGG | 1.02

Row | Sequence | switch fluorescence ratio
76 | GAGGTTAAA | 1.04
77 | GCGCGGAGCC | 1.02
78 | CAGAAGGAAA | 0.963
79 | TAGAAAGTTA | 1.08
80 | TTGTGCGTCT | 0.946
81 | TCATGCTGGG | 1.02
82 | GAATACGGTG | 1.04
83 | ATGTGGTCGG | 1.02
84 | ACGGTTATCA | 1.02
85 | TGCAGCAACT | 1.69
86 | TTAGACTATG | 1.01
87 | AGGTCGGAGG | 1.01
88 | CGAAATTA | 1.04
89 | GATGAAGCCA | 0.908
90 | GCTTTCCGTG | 1.07
91 | TCAGAGCACT | 1.12
92 | GCCTTAGGGA | 1
93 | GTTGTACTCC | 1.45
94 | ACTAGCACTC | 1.13
95 | GGTAAGTACA | 1.33
96 | TTTATTGTGA | 1.01
97 | TAATTGAGTG | 0.978
98 | TCCATTTAA | 1.05
99 | GAGCCTGATG | 0.988
100 | TCGAACATGC | 1.22

Row | Sequence | switch fluorescence ratio
101 | GGGCGAACAC | 1.01
102 | GATAGCCTGG | 0.978
103 | AATCAAAACT | 1.71
104 | GGCAATGAGT | 1.03
105 | AAAGAACATA | 1.13
106 | TTCTGATAGG | 0.961
107 | CACAGCAGAT | 1.2
108 | GTGTATTAGA | 0.979
109 | GGGCCTTCCA | 1.28
110 | AAGTGCACA | 1.05
111 | GGCTTGTAAA | 0.987
112 | CTATTTGTC | 1.03
113 | AGTTATTC | 1.03
114 | CCAATTGAT | 1
115 | TATGTGATGA | 0.979
116 | GGCAGGGTCC | 0.959
117 | CGGAAGTCAG | 0.994
118 | CAGCCTCATA | 1.02
119 | AGCTTATTTT | 1.01
120 | GAGTGTAATC | 0.943
121 | TTTAGTCGA | 0.994
122 | TTTTGAGACA | 1.02
123 | ACTCTTTTTG | 1.02
124 | CGGCCGACGG | 1.01
125 | AGAGTCGTTC | 0.988

Row | Sequence | switch fluorescence ratio
126 | ACGGTGTACA | 1.01
127 | GCCATTTCCT | 1
128 | CGATCTTCGG | 1.01
129 | GAGCTGCTGG | 0.982
130 | GCGTGTTCGG | 0.976
131 | TGCATGAACA | 1.06
132 | TCCCACTCGC | 1.14
133 | ATGTATCCG | 0.919
134 | ATTCCACGCT | 1.31
135 | AAGAATGATA | 0.98
136 | ATCTTGGTTC | 0.976
137 | AATTCGGCCC | 1.01
138 | CGCTTGGCTA | 0.994
139 | GCGGGGTGGT | 1.03
140 | TTGAAAGATA | 1
141 | TTATTAAGCG | 0.94
142 | TTGTGTCAGG | 1.04
143 | GTGAGGATAG | 1
144 | AATGTTGCTC | 1.02
145 | GCACAAATAT | 1
146 | ACGGAATAGC | 3.05
147 | GCTCACGATC | 1.27
148 | TTGTATAACG | 0.936
149 | TGAGTTCGGA | 1.03
150 | CCCTGGGGTT | 1.04

Row | Sequence | switch fluorescence ratio
151 | CTCGGCTCCG | 0.969
152 | CCTTGGTCAC | 1.16
153 | GGAAAACGTT | 0.98
154 | AGTGTCTGGA | 0.982
155 | TGGTTAATTT | 1
156 | CGATGACGGG | 0.949
157 | TAAAGTCCTC | 1.02
158 | AAGCTCGTG | 0.985
159 | AATGCAGGAT | 1.03
160 | GTTTTGCACT | 1.01
161 | TTATACTACG | 1.05
162 | TAGCGGCCA | 1
163 | CTATTTGCGT | 0.992
164 | AATCTATGTC | 0.984
165 | AATTGGGAGA | 0.938
166 | CGTGACCTAG | 1.01
167 | TGCGTCTGGA | 1.03
168 | CGGTAATAAT | 1.03
169 | CCTAATGCAA | 3.04
170 | CACCTTAGTA | 1.05
171 | CCCGCGAAAT | 2.05
172 | GTCCTGTTAC | 1.03
173 | ACCCCGAGTG | 2.74
174 | TTCCTTGCGA | 2.63
175 | CATTTTTGTC | 0.998

Row | Sequence | switch fluorescence ratio
176 | TCATTACTTG | 1.04
177 | GCTTATTAAT | 0.984
178 | ATCGGTGCTA | 0.93
179 | CGGATAAGGA | 1
180 | AGGCGTTACA | 1.01
181 | CTTACAGCAG | 1.14
182 | GGATTATCTA | 0.966
183 | GCGATACCAT | 1.12
184 | TGACGCGAGG | 1.18
185 | TGGACCACAC | 1.31
186 | TTGATGGCGG | 1.03
187 | ACCCGGCGAG | 1.02
188 | CTCTAACGTT | 1.01
189 | TGTGTACACG | 1.04
190 | TTGGGATGT | 0.989
191 | TTAATAGCTG | 1.03
192 | TTTGGTCTAC | 1.03
193 | CTATCGGTAT | 1.05
194 | ACCACGGGGA | 1.01
195 | AATATTTCG | 0.98
196 | GTCCCAGCTG | 1.06
197 | GGCATTTCAA | 1.01
198 | GTGGTGGTCT | 1.04
199 | ATACGGTCCG | 1.09
200 | GCAGGCCCTA | 0.968
